Assay results taken from ChEMBL document CHEMBL4888484, “Replenishing the malaria drug discovery pipeline: Screening and hit evaluation of the MMV Hit Generation Library 1 (HGL1) against asexual blood stage Plasmodium falciparum ,using a nano luciferase reporter read-out” (2022).
Among all 4,800 compounds or so, about 420 (8.8%) showed an effect of 50% or more. Some of the results follow.

These compounds were tested on Plasmodium falciparum (assay: Confirmatory screen in NF54 nanoGlo assay, in single point, at 2uM, 72h). Settings: timepoint 72 hour.
Format: functional, Erythrocyte
For `C=Cn1cc[n+](CC(=O)c2ccc(-c3ccccc3)cc2)c1`, the “% Inhibition” value was 48%.
With `Clc1ccc(Cl)c(-c2ccc(CNn3cnnc3)o2)c1` the “% Inhibition” value was 1%.
For `O=C(C[C@H]1CCc2nnc(C3CCOCC3)n2CC1)Nc1ccc(Cl)cc1F`, the “% Inhibition” value was -8%.
In the case of `O=C(Nc1ccccc1)Nc1nc2c(s1)CCCCCCCCCC2`, the “% Inhibition” value was -6%.
With `Cc1ccc(NC(=O)CC2CC3CCC2C3)c(Br)c1` (stereo unspecified) the “% Inhibition” value was 7%.
For `C[C@H]1CCCCN1C(=O)CN1CCN(c2nccn3cnnc23)CC1`, the “% Inhibition” value was -5%.
`O=C(CCCc1ccccc1)Nc1cc(C2CC2)nn1-c1nc(-c2ccccc2)cc(=O)[nH]1` was tested, and the “% Inhibition” value was 48%.
For `Cn1c2cn(-c3ccc(F)cc3)c(-c3ccccc3)c2c(=O)n1-c1ccccc1`, the “% Inhibition” value was -1%.
`CN1CCC(NC(=O)c2cnc(-c3ccc4c(c3)OCO4)nc2Nc2ccc(F)cc2)CC1` was tested, and the “% Inhibition” value was 19%.
With `CS(=O)(=O)N1CCc2cc(S(=O)(=O)N3CCC(c4ccccc4)CC3)ccc21` the “% Inhibition” value was 0%.
With `Cc1cc(OC(=O)[C@H]2CC(=O)N(c3ccc4ccccc4c3)C2)c(C(C)C)cc1NC1=NS(=O)(=O)c2ccccc21` the “% Inhibition” value was -2%.
For `CCNc1ccnc(NCc2nc(-c3cccc(F)c3)c(-c3ccccn3)[nH]2)n1`, the “% Inhibition” value was 30%.
With `Cc1ncccc1C(=O)Nc1cccc(Oc2cccnn2)c1` the “% Inhibition” value was 1%.
For `O=C(NCc1ccco1)c1cc2c(Cl)ccc3c2n1CCO3`, the “% Inhibition” value was -1%.
With `O=C(NCc1c(O)ccc2c1CCCC2)c1ccc2nncn2c1` the “% Inhibition” value was -18%.
In the case of `COc1ccc(C(=O)n2nc(Nc3ccccc3Cl)cc2Nc2ccccc2Cl)cc1`, the “% Inhibition” value was 7%.
With `COc1ccc(S(=O)(=O)N2CCC(C)(C(=O)NCc3ccc4c(c3)OCO4)CC2)cc1OC` the “% Inhibition” value was 0%.
In the case of `CCN(C)CCN(CC)C(=O)CCc1cc2c(n1-c1ccc(OC)cc1)-c1ccccc1CC2`, the “% Inhibition” value was 15%.
With `COc1ccc([C@H](CNC(=O)c2ccccc2)N2CCC(c3ccccc3)=N2)cc1` the “% Inhibition” value was -3%.
In the case of `CN1CCN(c2nc(-c3cccc(C(F)(F)F)c3)nc3c2cnn3Cc2ccccc2)CC1`, the “% Inhibition” value was -4%.
With `Cn1c(-c2ccccc2)cn2cc(-c3ccc(Cl)cc3)nc12` the “% Inhibition” value was 7%.
`Cc1ncsc1C=Cc1ncc(C(=O)O)c(C(C)C)n1` was tested, and the “% Inhibition” value was -17%.
`Cc1nn(C2CCCC2)c2nc(-c3cc(CN(C)C)cs3)[nH]c12` was tested, and the “% Inhibition” value was -4%.
`Cc1c(N[C@@H](C)C2CCOCC2)cccc1C(N)=O` was tested, and the “% Inhibition” value was -2%.
With `CCOC(=O)C1CCC(CN(Cc2ccc(OC)cc2)S(=O)(=O)c2cc(C(=O)Nc3ccc(OCC)cc3)ccc2F)CC1` (stereo unspecified) the “% Inhibition” value was 50%.
`Cc1c(NC(=O)CC(C)(C)CC(=O)N2CCN(c3ccccc3F)CC2)c(=O)n(-c2ccccc2)n1C` was tested, and the “% Inhibition” value was 2%.
